# Data as given in the BET-seq Pho4 binding data (Le et al. 2018).
# The list shows a part of the results. These are noisy estimates, calculated here from bound and input reads.
# Target: T1, Pho4 (S. cerevisiae) (UniProt P07270)
# T1 sequence: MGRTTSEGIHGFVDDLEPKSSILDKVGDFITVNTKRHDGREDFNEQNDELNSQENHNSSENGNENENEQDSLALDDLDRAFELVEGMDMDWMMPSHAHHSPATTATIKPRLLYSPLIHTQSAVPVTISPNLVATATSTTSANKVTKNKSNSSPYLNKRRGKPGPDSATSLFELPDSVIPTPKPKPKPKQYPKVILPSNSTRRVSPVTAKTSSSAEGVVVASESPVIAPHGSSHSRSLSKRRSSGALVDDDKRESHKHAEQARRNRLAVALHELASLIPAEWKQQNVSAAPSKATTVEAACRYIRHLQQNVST
# Assay: relative binding free energy (BET-seq); higher = weaker binding
# Conditions: reference: library average
row,Sequence,relative binding free energy [kcal/mol]
1,AATTACACGTGTCTTG,0.19
2,TTCTTCACGTGGAGTC,0.33
3,TATCACACGTGTTTAG,0.24
4,AGCATCACGTGATAGG,0.28
5,AGTAGCACGTGTTCGA,-0.09
6,GTGTACACGTGAATGA,0.24
7,TGCAGCACGTGATTTG,0.09
8,ATCTGCACGTGTGTGT,0
9,CTTTGCACGTGAGGGG,0.14
10,TTGATCACGTGTGATG,0.19
11,GGTGTCACGTGCCAGG,-0.04
12,AAATACACGTGTGAGG,0.16
13,ATTCGCACGTGGAGTG,-0.27
14,AAGCGCACGTGGTATT,-0.11
15,TATCCCACGTGGGGGT,-0.26
16,TAGCTCACGTGATGGT,0.47
17,CGGGGCACGTGTTTCG,-0.15
18,GTTCTCACGTGGAGAT,0.35
19,TGTTGCACGTGGGATT,-0.1
20,TTACTCACGTGTGTTA,0.09
21,GTTGTCACGTGCTTGG,0.04
22,TTAGTCACGTGCTGGT,0.01
23,TGTTCCACGTGGGCTG,-0.11

row,Sequence,relative binding free energy [kcal/mol]
1,GTGTACACGTGGGGCC,-0.09
2,TCGGTCACGTGTATGA,-0.01
3,AGAAGCACGTGATATG,0.06
4,CAGGGCACGTGGGTTT,-0.22
5,TAAGGCACGTGTAGTC,-0.03
6,TTTTTCACGTGGTCGG,0.34
7,GGTTTCACGTGAATTG,0.44
8,TTCGGCACGTGTATGT,-0.1
9,TGTTTCACGTGGCGTG,0.21
10,AGCAGCACGTGTGGGA,-0.14
11,TACTGCACGTGTCGTT,0.09
12,CTGTGCACGTGGTTTG,-0.16
13,AGTACCACGTGTGTGT,-0.1
14,GTCGTCACGTGGCTTG,0.1
15,TGTTTCACGTGGAATC,0.25
16,ATTTTCACGTGTCATT,0.32
17,TGGGACACGTGAGATG,0.11
18,ATGTGCACGTGGGTTC,-0.15
19,TGGGACACGTGTGCGG,-0.02
20,AGGTTCACGTGAAGTT,0.31
21,GATTTCACGTGTGTAC,0.29
22,CGTCGCACGTGTTTTT,0.12
23,TACGTCACGTGGAATG,0.22

row,Sequence,relative binding free energy [kcal/mol]
1,GATCACACGTGGTGTT,0.02
2,TCAGTCACGTGTGGAG,0.16
3,GAGGGCACGTGGGTAG,-0.18
4,AGTCACACGTGGTTGG,0.09
5,GGTCTCACGTGAGCGG,0.4
6,ATCGGCACGTGGACGT,-0.02
7,GTTCTCACGTGGATTG,0.39
8,TATGGCACGTGGGACG,-0.27
9,GTTAGCACGTGGTTAC,-0.03
10,TATTTCACGTGAGAGT,0.5
11,ATGTGCACGTGTGTGC,-0.01
12,TTCCTCACGTGGGGTG,0.08
13,TATTTCACGTGGAGTC,0.26
14,TATTACACGTGTCGAT,0.12
15,ACGGTCACGTGTGTTC,0.2
16,ACTGTCACGTGTTTGA,0.16
17,CATTGCACGTGGAGGC,0.16
18,GAGAGCACGTGTGATT,0.07
19,TGAAGCACGTGGGTGG,-0.16
20,GTAGGCACGTGGCATT,-0.13
21,GATAGCACGTGGACGT,0.22
22,ATTAACACGTGGGTGG,-0.27
23,TTAGTCACGTGGTTTG,0.04

row,Sequence,relative binding free energy [kcal/mol]
1,ATGTGCACGTGTATTT,0
2,TGGAACACGTGTGGCA,0.05
3,AATAACACGTGTAGGG,-0.07
4,TCTATCACGTGTAGGG,0.17
5,GATTTCACGTGAGTTA,0.49
6,GTTCACACGTGTATGG,0.07
7,TGAGACACGTGTGGCA,0.05
8,TATTTCACGTGAAGTC,0.36
9,TGATTCACGTGTTCTT,0.16
10,ATGAACACGTGGTTCG,-0.02
11,AGCGGCACGTGACGTG,0.01
12,GCGTCCACGTGGAGGG,0.01
13,TATTACACGTGTTATG,-0.01
14,TAAGGCACGTGATATT,-0.04
15,CGCGGCACGTGGGGGA,-0.23
16,ATTGTCACGTGAGCTG,0.37
17,TGAGACACGTGCTTGG,0.01
18,TGTTGCACGTGGGCGG,-0.21
19,TTAGTCACGTGTCCGT,0
20,AAGTTCACGTGGGGTT,0.2
21,ATTATCACGTGGGTAT,0.07
22,GGGGACACGTGTTGTC,0.07
23,CTGTGCACGTGGCGTA,-0.08

row,Sequence,relative binding free energy [kcal/mol]
1,ACTTACACGTGGGAGG,0.09
2,TTGTCCACGTGGGCTT,-0.09
3,CGAATCACGTGTTGGG,0.1
4,TTCTGCACGTGTAGAG,0.05
5,GCAAGCACGTGTGAGG,0.08
6,ATTAGCACGTGTGCAT,-0.1
7,GTAATCACGTGGTGGC,0.18
8,TGCGTCACGTGGTTCT,0.05
9,TCCGTCACGTGTTGGA,0.16
10,GGGTACACGTGCTGGA,0.16
11,TAAGTCACGTGATTAA,0.18
12,TAGCGCACGTGTTTGA,-0.08
13,GGTTTCACGTGTGGAA,0.4
14,TAGTGCACGTGGTCGC,-0.1
15,TGTTTCACGTGACGTA,0.3
16,GATCGCACGTGGGAGG,-0.06
17,TCTAGCACGTGCTGTG,-0.02
18,GAGTACACGTGTGTTT,0.05
19,TACATCACGTGGAGGT,0.13
20,TGTAACACGTGTGAGG,0.05
21,AGTCTCACGTGTTTTA,0.13
22,GCAGGCACGTGAGGGA,0.07
23,GTGTTCACGTGAGTTT,0.27
